Measured values reported in PubChem BioAssay AID1240 (Sanford-Burnham Center for Chemical Genomics, 2008).
Screen size: about 50,000 compounds; about 800 (1.6%) showed an effect of 50% or more. The list shows a part of the results.

The compounds below were run against Bcl-2-like protein 10 (Homo sapiens) (UniProt Q9HD36) (assay: TR3 peptide-Bcl-B binding displacers, biochemical primary FP assay, phenotype converters (AID 1240;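 further: 0% = Bcl-B with tracer peptide and DMSO and 100% = tracer peptide lacking Bcl-B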)). Conditions: GST-Bcl-B / FITC-TR3 peptide fluorescence polarization; stronger effect = higher value; compound at 3.75 mg/L.
Chain of UniProt Q9HD36 (Q9HD36 whole entry, looked up): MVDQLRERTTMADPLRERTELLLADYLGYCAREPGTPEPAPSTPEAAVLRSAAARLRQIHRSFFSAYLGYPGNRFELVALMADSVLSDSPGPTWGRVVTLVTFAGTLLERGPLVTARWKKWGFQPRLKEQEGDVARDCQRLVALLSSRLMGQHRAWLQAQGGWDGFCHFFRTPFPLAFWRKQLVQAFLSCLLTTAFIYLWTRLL
`Nc1ccc2c(c1)C(=O)N(c1ccccc1)C2=O` gave a displacement of 6.1%.
For `O=C1CC(Cc2ccc(Cl)cc2)C(=O)N1c1ccc(I)cc1` (configuration not stated), the displacement was -15%.
Compound `CC(C)(C)c1csc(NC(=O)COc2ccc(F)cc2)n1` has a displacement of 9.1%.
Work on `COc1ccc(-c2nc(NC(=O)c3ccccc3F)sc2-c2ccc([N+](=O)[O-])cc2)cc1` yielded a displacement of 13.6%.
With `Cc1ccc(/C=N/NC(=O)C(C)Nc2ccc(Cl)cc2)o1` (configuration not stated) the displacement was 2.2%.
`CC1(C)Cc2ccccc2/C(=C/C(=O)Nc2ccc(Cl)cc2Cl)N1` gave a displacement of -3.3%.
`OCCCNc1nc2ccccc2n1Cc1ccccc1` gave a displacement of -6.8%.
Compound `Cc1cn(S(=O)(=O)c2ccc(Cl)cc2)cn1` has a displacement of 10.3%.
Compound `COc1ccccc1-c1coc2cc(OC(C)=O)ccc2c1=O` has a displacement of 8.2%.
`CCN(Cc1ccccc1)C(=O)Cc1ccc(Cl)cc1` gave a displacement of -1.3%.
Compound `NC(=O)/C=C/C(=O)Nc1ccc2c(c1)OCO2` has a displacement of 8.2%.
`CCc1ccc(-n2c(C)cc(C=C(C#N)C#N)c2C)cc1` gave a displacement of 0%.
With `Cc1ccc2c(c1)C(c1ccccc1C(F)(F)F)CC(=O)N2` (configuration not stated) the displacement was -7.9%.
With `Cc1ccc(C(C)C)c(OCC(=O)N/N=C/c2cc(I)cc(I)c2O)c1` the displacement was 10%.
Work on `CC(=O)C1(C)N(O)C(C)(C)C(c2ccc(Br)cc2)=[N+]1[O-]` (configuration not stated) yielded a displacement of 14.2%.
Compound `CN(C)c1ccc(C(=S)N2CCOCC2)cc1` has a displacement of -7.8%.
In the case of `Cc1ccc2[nH]c3c(c2c1)CC/C(=C/N(C)C)C3=O`, the displacement is reported as 20.5%.
For `CCOc1ccccc1/C=N/NC(=O)Cc1nnc(N)s1`, the displacement was 1.9%.
For `COC(=O)c1cccc(NC(=O)COc2ccc(-c3ccc(C)cc3)cc2)c1`, the displacement was 2.5%.
`CN(C)/C=C1/C(=O)N(c2nc3ccccc3s2)N=C1C(F)(F)F` was tested, and the displacement was -14.5%.
`Cc1ccc(C2OC3(C(=O)c4ccccc4C3=O)C3C(=O)N(c4ccc(C(C)C)cc4)C(=O)C23)cc1` (configuration not stated) showed a displacement of -9.3%.
In the case of `CN1/C(=C\C(=O)Nc2ccc(Br)cc2)C(C)(C)c2ccccc21`, the displacement is reported as 18.9%.
In the case of `CCOc1cc(/C=C2/SC(=S)N(C)C2=O)cc(Br)c1OCc1ccccc1F`, the displacement is reported as -7%.
`COc1ccc(/C=C/C(=O)Nc2nc(-c3ccccc3)cs2)cc1` was tested, and the displacement was -2.1%.
In the case of `O=C(COc1ccc2ccccc2c1)Nc1ccc(OC(F)(F)F)cc1`, the displacement is reported as 0%.
`CCOC(=O)N1CCN(C(=O)CN(c2ccc(C)cc2)S(=O)(=O)c2ccc(F)cc2)CC1` gave a displacement of 6.1%.
`O=C(N/N=C/c1ccc2c(c1)OCCO2)C(=O)Nc1ccc(F)cc1` showed a displacement of -1.4%.
Work on `Cc1cc(C)cc(C=C2C(=O)c3ccccc3C2=O)c1` yielded a displacement of -10.4%.
`Cc1ccc(N2C(=O)NC(=O)/C(=C\c3sccc3C)C2=O)cc1` was tested, and the displacement was -10.2%.
`COCCOC(=O)c1ccc(NS(=O)(=O)c2ccc(Cl)cc2)cc1` gave a displacement of 2.9%.
Work on `COc1ccc(OCC(=O)Nc2ccc(F)c(Cl)c2)cc1` yielded a displacement of 7.9%.
In the case of `CC(=O)c1ccc(NC(=O)c2cccnc2)cc1`, the displacement is reported as 10.3%.
`Cc1ccc(C(=O)O/N=C(\N)c2ccccc2)cc1` was tested, and the displacement was -9.3%.
Work on `O=C(COc1ccccc1[N+](=O)[O-])N/N=C/C(Br)=C/c1ccccc1` yielded a displacement of 10.5%.
`CC1(C)CC(NC(=O)C(=O)NCCc2ccc(Cl)cc2)CC(C)(C)N1` was tested, and the displacement was -3%.
`CN(C)c1cc(NC(=O)CNC(C)(C)CC(C)(C)C)c2ccccc2n1` was tested, and the displacement was -3.4%.
In the case of `CCc1ccccc1NC(=O)C(=O)NCCc1ccc(F)cc1`, the displacement is reported as -0.9%.
For `O=C(COc1ccc(Cl)cc1)NCc1cccnc1`, the displacement was 14.2%.
Compound `O=C(Nc1ccc(I)cc1)c1ccc2nccnc2c1` has a displacement of -12.3%.
Work on `CC1CCN(C(=O)c2ccc(Br)cc2)CC1` yielded a displacement of -8%.
Compound `CC(=O)Nc1ccc(C(=O)N2CCc3ccccc3C2)cc1` has a displacement of 9.6%.
With `COC(=O)c1ccc(/C=N/N=C(N)N)cc1` the displacement was -9.3%.
`COc1ccc(-c2nn(-c3ccccc3)cc2/C=N/NS(=O)(=O)c2ccccc2)cc1` gave a displacement of -6.4%.
`CCCOc1ccc(C(=S)N2CCN(c3cccc(C)c3)CC2)cc1` was tested, and the displacement was 13.1%.
In the case of `Cc1nn2c3ccccc3nc2n1CCN1CCOCC1`, the displacement is reported as 0.4%.
Compound `COc1ccccc1NC(=O)C1=C(C)NC(SCC(=O)c2ccccc2)=C(C#N)C1c1ccccc1` (configuration not stated) has a displacement of 0.3%.
`O=C(CC1Nc2ccccc2NC1=O)Nc1cccc(C(=O)O)c1` (configuration not stated) showed a displacement of -2.4%.
In the case of `Cc1ccc2c(Cl)c(C(=O)Nc3ncccc3Cl)sc2c1`, the displacement is reported as 5%.
`COc1ccccc1NCn1nnc2ccccc21` showed a displacement of 15.1%.
Work on `COc1cc2c(cc1NC(=O)C/C(C)=N/NC(=O)c1ccoc1C)oc1ccccc12` yielded a displacement of -22.8%.
`CC1CCN(CCCCOc2cccc3ccccc23)CC1` was tested, and the displacement was -2.7%.
For `COc1ccc(C(=O)CSc2nc(N)cc(=O)[nH]2)cc1`, the displacement was 14.1%.
With `O=C(CCc1n[nH]c(=O)[nH]c1=O)N/N=C/c1ccc([N+](=O)[O-])cc1` the displacement was 2.6%.
`O=C(N/N=C/c1cccc([N+](=O)[O-])c1O)/C(=C\c1ccc2c(c1)OCO2)NC(=O)c1ccccc1` gave a displacement of 28.8%.
For `O=S(=O)(NCCCO)c1ccc2c(c1)Cc1cc(S(=O)(=O)NCCCO)ccc1-2`, the displacement was -1.5%.
In the case of `CC1CCCN(C(=O)Cc2ccc(Br)cc2)C1` (configuration not stated), the displacement is reported as 12.1%.
`CC(C)(C)c1ccc(C(=O)N/N=C/c2ccc(O)cc2)cc1` gave a displacement of 10.6%.
`Cc1cccc(N2CCN(C(=O)Nc3ccc(Cl)cc3)CC2)c1C` gave a displacement of 11.4%.
In the case of `CN(C)CCNC(=S)NC(=O)C12CCC3CC(CC(C3)C1)C2`, the displacement is reported as -11.3%.
In the case of `COc1ccccc1N1CCN(/N=C\c2cccc(Cl)c2)CC1`, the displacement is reported as -3.1%.
`CCOc1ccc(C(=O)NCC2(C)CC(NC(=O)c3ccc(OCC)cc3)CC(C)(C)C2)cc1` (configuration not stated) gave a displacement of 7.1%.
Compound `Cc1cc(OCC(=O)Nc2ccc(O)c(-c3nc4ccccc4o3)c2)cc(C)c1Cl` has a displacement of -1.4%.
Compound `O=C(O)C1CCCCC1C(=O)N1CCN(c2ccc(F)cc2)CC1` (configuration not stated) has a displacement of -7.8%.
Compound `COc1ccc(CCNC(=O)C2CC(=O)N(c3ccccc3)C2)cc1OC` (configuration not stated) has a displacement of 1.3%.
With `O=C1c2ccccc2NC(c2ccc3c(c2)OCO3)N1c1ccc(F)cc1` (configuration not stated) the displacement was 9.9%.
Work on `COC(=O)CN(c1cc(Cl)ccc1OC)S(=O)(=O)c1ccccc1` yielded a displacement of 14.7%.
`O=S(=O)(NCc1ccc2c(c1)OCO2)c1ccc(Cl)cc1Cl` was tested, and the displacement was -9.7%.
In the case of `O=C(Nc1nc2ccccc2[nH]1)c1ccc(Cl)c(Cl)c1`, the displacement is reported as -12.9%.
In the case of `Cc1ccsc1C1NC(=O)c2c(sc3c2CCCC3)N1` (configuration not stated), the displacement is reported as 1.6%.
`COc1ccccc1/C=C1\SC(=S)N(C2CCS(=O)(=O)C2)C1=O` (configuration not stated) showed a displacement of 137%.
`CCOc1cc(/C=C2/SC(=S)N(C)C2=O)cc(Br)c1OCCOc1cccc(C)c1` gave a displacement of -11.5%.
`CCC(=O)Nc1ccc(NC(=O)c2ccc([N+](=O)[O-])cc2)cc1` showed a displacement of 8.5%.
